Experimental data from article PMC9911399, “Two distinct binding modes provide the RNA-binding protein RbFox with extraordinary sequence specificity”.
Substitutions are numbered along the chain they refer to; changes in the protein carry UniProt numbers. The list shows a part of the results.

T1: RBFOX1 RRM (Homo sapiens, UniProt Q9NWB1 109-208)
T1 sequence: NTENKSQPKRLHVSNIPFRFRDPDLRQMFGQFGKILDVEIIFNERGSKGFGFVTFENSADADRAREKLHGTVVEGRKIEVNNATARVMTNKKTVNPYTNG

B1: CAACAGU (DNA:RNA)
RNA: GGGAGACCGGAAUUCAGAUUGUCCCAACAGUUUAAAUCCCGUCGUAGCCACCA
DNA 1: CAATCTGAATTCCGGTCTCCC
DNA 2: TGGTGGCTACGACGGGATT
B2: AUCAUAC (DNA:RNA)
RNA: GGGAGACCGGAAUUCAGAUUGUCCAUCAUACUUAAAUCCCGUCGUAGCCACCA
DNA 1: CAATCTGAATTCCGGTCTCCC
DNA 2: TGGTGGCTACGACGGGATT
B3: UAGUGAC (DNA:RNA)
RNA: B2 RNA with A25U, U26A, C27G, A28U, U29G
DNA 1: CAATCTGAATTCCGGTCTCCC
DNA 2: TGGTGGCTACGACGGGATT
B4: CUGGUGA (DNA:RNA)
RNA: B2 RNA with A25C, C27G, A28G, A30G, C31A
DNA 1: CAATCTGAATTCCGGTCTCCC
DNA 2: TGGTGGCTACGACGGGATT
B5: UGGCCAC (DNA:RNA)
RNA: B2 RNA with A25U, U26G, C27G, A28C, U29C
DNA 1: CAATCTGAATTCCGGTCTCCC
DNA 2: TGGTGGCTACGACGGGATT
B6: UUCGGCC (DNA:RNA)
RNA: B2 RNA with A25U, A28G, U29G, A30C
DNA 1: CAATCTGAATTCCGGTCTCCC
DNA 2: TGGTGGCTACGACGGGATT
B7: UAGUGGA (DNA:RNA)
RNA: B1 RNA with C25U, A27G, C28U, A29G, U31A
DNA 1: CAATCTGAATTCCGGTCTCCC
DNA 2: TGGTGGCTACGACGGGATT
B8: CGGUGGG (DNA:RNA)
RNA: B1 RNA with A26G, A27G, C28U, A29G, U31G
DNA 1: CAATCTGAATTCCGGTCTCCC
DNA 2: TGGTGGCTACGACGGGATT
B9: UCGGCUA (DNA:RNA)
RNA: GGGAGACCGGAAUUCAGAUUGUCCUCGGCUAUUAAAUCCCGUCGUAGCCACCA
DNA 1: CAATCTGAATTCCGGTCTCCC
DNA 2: TGGTGGCTACGACGGGATT
B10: GCUGCAU (DNA:RNA)
RNA: B9 RNA with U25G, G27U, U30A, A31U
DNA 1: CAATCTGAATTCCGGTCTCCC
DNA 2: TGGTGGCTACGACGGGATT
B11: AAUCUUG (DNA:RNA)
RNA: B2 RNA with U26A, C27U, A28C, A30U, C31G
DNA 1: CAATCTGAATTCCGGTCTCCC
DNA 2: TGGTGGCTACGACGGGATT
B12: AAGUUAU (DNA:RNA)
RNA: B2 RNA with U26A, C27G, A28U, C31U
DNA 1: CAATCTGAATTCCGGTCTCCC
DNA 2: TGGTGGCTACGACGGGATT
B13: AGUGGCU (DNA:RNA)
RNA: B2 RNA with U26G, C27U, A28G, U29G, A30C, C31U
DNA 1: CAATCTGAATTCCGGTCTCCC
DNA 2: TGGTGGCTACGACGGGATT
B14: GUUGCAA (DNA:RNA)
RNA: B9 RNA with U25G, C26U, G27U, U30A
DNA 1: CAATCTGAATTCCGGTCTCCC
DNA 2: TGGTGGCTACGACGGGATT
B15: AACAUGU (DNA:RNA)
RNA: B2 RNA with U26A, A30G, C31U
DNA 1: CAATCTGAATTCCGGTCTCCC
DNA 2: TGGTGGCTACGACGGGATT
B16: GAACCUC (DNA:RNA)
RNA: B1 RNA with C25G, A29C, G30U, U31C
DNA 1: CAATCTGAATTCCGGTCTCCC
DNA 2: TGGTGGCTACGACGGGATT
B17: GAUAAUA (DNA:RNA)
RNA: B1 RNA with C25G, A27U, C28A, G30U, U31A
DNA 1: CAATCTGAATTCCGGTCTCCC
DNA 2: TGGTGGCTACGACGGGATT
B18: CAGAGAC (DNA:RNA)
RNA: B2 RNA with A25C, U26A, C27G, U29G
DNA 1: CAATCTGAATTCCGGTCTCCC
DNA 2: TGGTGGCTACGACGGGATT
B19: GCCACGC (DNA:RNA)
RNA: B2 RNA with A25G, U26C, U29C, A30G
DNA 1: CAATCTGAATTCCGGTCTCCC
DNA 2: TGGTGGCTACGACGGGATT
B20: UUCGAAC (DNA:RNA)
RNA: B2 RNA with A25U, A28G, U29A
DNA 1: CAATCTGAATTCCGGTCTCCC
DNA 2: TGGTGGCTACGACGGGATT
B21: AGAUAGG (DNA:RNA)
RNA: B1 RNA with C25A, A26G, C28U, U31G
DNA 1: CAATCTGAATTCCGGTCTCCC
DNA 2: TGGTGGCTACGACGGGATT
B22: AUAAAUU (DNA:RNA)
RNA: B2 RNA with C27A, U29A, A30U, C31U
DNA 1: CAATCTGAATTCCGGTCTCCC
DNA 2: TGGTGGCTACGACGGGATT
B23: UACUAUA (DNA:RNA)
RNA: B9 RNA with C26A, G27C, G28U, C29A
DNA 1: CAATCTGAATTCCGGTCTCCC
DNA 2: TGGTGGCTACGACGGGATT
B24: GAGCUCU (DNA:RNA)
RNA: B1 RNA with C25G, A27G, A29U, G30C
DNA 1: CAATCTGAATTCCGGTCTCCC
DNA 2: TGGTGGCTACGACGGGATT
B25: UUCAGAU (DNA:RNA)
RNA: B2 RNA with A25U, U29G, C31U
DNA 1: CAATCTGAATTCCGGTCTCCC
DNA 2: TGGTGGCTACGACGGGATT
B26: GCAUAUC (DNA:RNA)
RNA: B1 RNA with C25G, A26C, C28U, G30U, U31C
DNA 1: CAATCTGAATTCCGGTCTCCC
DNA 2: TGGTGGCTACGACGGGATT
B27: CGAAAGC (DNA:RNA)
RNA: B1 RNA with A26G, C28A, U31C
DNA 1: CAATCTGAATTCCGGTCTCCC
DNA 2: TGGTGGCTACGACGGGATT
B28: ACGGAUC (DNA:RNA)
RNA: B9 RNA with U25A, C29A, A31C
DNA 1: CAATCTGAATTCCGGTCTCCC
DNA 2: TGGTGGCTACGACGGGATT
B29: UCUUCGU (DNA:RNA)
RNA: B9 RNA with G27U, G28U, U30G, A31U
DNA 1: CAATCTGAATTCCGGTCTCCC
DNA 2: TGGTGGCTACGACGGGATT
B30: GUUUCGU (DNA:RNA)
RNA: B1 RNA with C25G, A26U, A27U, C28U, A29C
DNA 1: CAATCTGAATTCCGGTCTCCC
DNA 2: TGGTGGCTACGACGGGATT
B31: CCCGAGA (DNA:RNA)
RNA: B1 RNA with A26C, A27C, C28G, U31A
DNA 1: CAATCTGAATTCCGGTCTCCC
DNA 2: TGGTGGCTACGACGGGATT

The binders below were run against T1, RBFOX1 RRM (assay: EMSA; HiTS-Eq, 1 nM pool, 10 min; buffer printed only for the single-RNA assays: 10 mM Tris pH 7.5, 150 mM NaCl, 3.4 mM EDTA, 0.001% NP-40, 30 C). Conditions: tags: His6 N-terminal (pET28a); label: 5' 32P.
Summary of the method: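 A pool of RNA with 7 randomized nucleotides, 5′-radiolabelled and with DNA-annealed flanks, was equilibrated at 1 nM for 10 min in 50 µL with purified RbFox RRM, wild type or mutant, across increasing protein concentrations. Free RNA was separated by 8% native PAGE, excised, reverse-transcribed, barcoded by PCR and sequenced. Relative association constants were obtained from read-count changes of each RNA species versus the control reaction and normalised to the cognate motif.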

| Binder | binding signal |
| --- | --- |
| B1 | 0.00195 KA relative to UGCAUGU |
| B2 | 0.00032 KA relative to UGCAUGU |
| B3 | 0.00173 KA relative to UGCAUGU |
| B4 | 0.0173 KA relative to UGCAUGU |
| B5 | 0.0117 KA relative to UGCAUGU |
| B6 | 0.0171 KA relative to UGCAUGU |
| B7 | 0.00304 KA relative to UGCAUGU |
| B8 | 0.00823 KA relative to UGCAUGU |
| B9 | 0.0186 KA relative to UGCAUGU |
| B10 | 0.0278 KA relative to UGCAUGU |
| B11 | 0.00505 KA relative to UGCAUGU |
| B12 | 0.00257 KA relative to UGCAUGU |
| B13 | 0.0216 KA relative to UGCAUGU |
| B14 | 0.017 KA relative to UGCAUGU |
| B15 | 0.00671 KA relative to UGCAUGU |
| B16 | 0.00399 KA relative to UGCAUGU |

| Binder | binding signal |
| --- | --- |
| B17 | 0.00856 KA relative to UGCAUGU |
| B18 | 0.00668 KA relative to UGCAUGU |
| B19 | 0.0115 KA relative to UGCAUGU |
| B20 | 0.0137 KA relative to UGCAUGU |
| B21 | 0.0145 KA relative to UGCAUGU |
| B22 | 0.000906 KA relative to UGCAUGU |
| B23 | 0.00337 KA relative to UGCAUGU |
| B24 | 0.0127 KA relative to UGCAUGU |
| B25 | 0.0118 KA relative to UGCAUGU |
| B26 | 0.00606 KA relative to UGCAUGU |
| B27 | 0.00459 KA relative to UGCAUGU |
| B28 | 0.00949 KA relative to UGCAUGU |
| B29 | 0.016 KA relative to UGCAUGU |
| B30 | 0.0212 KA relative to UGCAUGU |
| B31 | 0.0032 KA relative to UGCAUGU |
